Measurements as given in the supplement of paper PMC4723716.
± gives the uncertainty stated by the source. The full ranking holds about 9,900 compounds; the median of “viability index relative to DMSO control” is about 1, and the lowest 2% start at about 0.85. The list shows a part of the results.

The compounds below were run on Plasmodium falciparum NF54 stage V gametocytes (assay: viability index relative to DMSO control (fraction); higher = less gametocyte killing). Conditions: 2.5 µM, library set: Broad Institute DOS, incubation time: 72 h.
Procedure, shortened: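 P. falciparum NF54 stage V gametocytes in serum-free screening medium (0.75% gametocytemia, 1.25% hematocrit, 10 µl) were incubated with compound at 2.5 µM in 1,536-well plates for 72 hr at 37°C under low oxygen. Then 3 µl of 2.5 µM MitoTracker Red CMXRos plus 0.13% saponin was added for one to two hours. One field per well was imaged, 20–70 µm2 red particles were counted, and the viability index was the count divided by the plate mean of DMSO wells.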

| Compound | viability index |
| --- | --- |
| CN1c2ccc(Br)cc2[C@@H]2[C@@H](CCN2C(=O)Cc2ccccc2)[C@H]1CO | 1.12 ± 0.026 |
| O=C(C[C@@H]1CC[C@@H]2NC[C@H](O)COC[C@H]2O1)NC1Cc2ccccc2C1 | 1.02 ± 0.051 |
| COc1ccc2c3c([C@H](CO)N(C[C@]33CCN(CC3)C(=O)c3ccncc3)C(=O)C3CCOCC3)n(C)c2c1 | 1.041 ± 0.0015 |
| C[C@H](CO)N1C[C@H](C)[C@@H](CN(C)Cc2ccncc2)Oc2ccc(NS(=O)(=O)c3ccc(F)cc3)cc2CC1=O | 0.96438 ± 0.00037 |
| C[C@H]1CN([C@@H](C)CO)C(=O)c2ccccc2-c2ccccc2CO[C@@H]1CN(C)S(=O)(=O)c1cn(C)cn1 | 1.04 ± 0.048 |
| COc1cccc(CN2C[C@@]3(C2)CN([C@H](CO)c2[nH]c4cc(OC)ccc4c32)C(=O)C2CC2)c1 | 1.06 ± 0.16 |
| O=C(C[C@H]1CC[C@H]2[C@@H](COC[C@H](O)CN2CC2CCOCC2)O1)NCC1CCCCC1 | 1.06 ± 0.075 |
| O=C(Nc1cc(F)ccc1F)N[C@H]1CC[C@@H](CCn2cc(C3CCCCC3)nn2)O[C@H]1CO | 1.04 ± 0.074 |
| CN(C)CC(=O)N1[C@H](CO)[C@@H](c2ccc(-c3cccc(C(=O)N(C)C)c3)cc2)[C@@H]1C#N | 1.1 ± 0.012 |
| CCC(=O)N1[C@H](CO)[C@H](c2ccccc2)[C@H]1CN(CC)C(=O)c1cccc(F)c1 | 1.07 ± 0.035 |
| COc1ccccc1CNC(=O)C[C@@H]1CC[C@H]2[C@@H](COC[C@@H](O)CN2Cc2ccc3c(c2)OCO3)O1 | 1.085 ± 0.0067 |
| Cc1noc(C)c1NC(=O)N[C@@H]1C=C[C@@H](CC(=O)Nc2ccc(-c3ccccc3)cc2)O[C@@H]1CO | 0.979 ± 0.1 |
| CO[C@H]1CN(C)C(=O)c2ccc(NC(=O)C3CC3)cc2OC[C@H](C)N(C(C)=O)C[C@@H]1C | 1.11 ± 0.035 |
| C[C@@H]1CN([C@H](C)CO)C(=O)c2ccccc2-c2ccccc2CO[C@@H]1CN(C)Cc1ccccc1C(F)(F)F | 0.806 ± 0.11 |
| COc1cccc(CNC(=O)[C@H]2[C@H](CO)[C@H]3Cn4c(ccc(-c5cncnc5)c4=O)[C@H]3N2C)c1 | 0.9922 ± 0.0064 |
| C[C@@H]1CN([C@H](C)CO)C(=O)Cc2cc(N(C)C)ccc2O[C@@H]1CN(C)Cc1ccc(-c2ccccc2)cc1 | 0.98 ± 0.019 |
| CO[C@@H](CN(C)Cc1ccc2c(c1)OCO2)[C@H](C)CN(C(=O)Nc1ccc(F)cc1)[C@@H](C)CO | 1.03 ± 0.042 |
| CO[C@@H](CN(C)S(=O)(=O)c1cccc(Cl)c1)[C@H](C)CN(C(=O)Nc1ccccc1F)[C@H](C)CO | 1.05 ± 0.049 |
| C[C@@H]1CN([C@H](C)CO)C(=O)c2cc(NS(=O)(=O)c3ccc(Cl)cc3)ccc2O[C@@H](C)CCCCO[C@@H]1CN(C)Cc1ccncc1 | 1.01 ± 0.031 |
| C[C@H](CO)N1C[C@H](C)[C@@H](CN(C)S(=O)(=O)c2ccc(F)cc2)OCCCC[C@H](C)Oc2ccc(N(C)C)cc2C1=O | 1.04 ± 0.11 |
| COc1ccccc1S(=O)(=O)N(C)C[C@@H]1OCc2ccccc2-c2ccccc2C(=O)N([C@@H](C)CO)C[C@@H]1C | 1.01 ± 0.082 |
| C[C@@H]1CCCCO[C@H](CN(C)CC2CCCCC2)[C@H](C)CN([C@@H](C)CO)C(=O)c2cc(NS(C)(=O)=O)ccc2O1 | 1.11 ± 0.12 |
| CN1c2ccc(Br)cc2[C@H]2[C@H](CCN2C(=O)Nc2cccc(F)c2)[C@H]1CO | 1.108 ± 0.0082 |

| Compound | viability index |
| --- | --- |
| O=C(CC1CC1)N1CC[C@@H]2[C@@H](CO)Nc3ccc(-c4ccc(F)cc4)cc3[C@@H]21 | 1.09 ± 0.05 |
| COc1cccc(NC(=O)C[C@@H]2CC[C@@H]3[C@@H](COc4ccc(NC(=O)C5CC5)cc4C(=O)N3C)O2)c1 | 1.17 ± 0.13 |
| CN(C[C@H]1[C@H](c2ccccc2)[C@@H](CO)N1CC1CC1)C(=O)c1ccc(F)cc1 | 0.953 ± 0.029 |
| C[C@H](NC(=O)[C@@H]1[C@@H](CO)[C@@H]2Cn3c(ccc(-c4ccccc4)c3=O)[C@@H]2N1C)c1ccccc1 | 1.07 ± 0.031 |
| CC(C)[C@@H]1COCc2cnnn2CCC[C@@H](C)C(=O)N1 | 1.07 ± 0.071 |
| CO[C@@H](CN(C)C(=O)C1CCOCC1)[C@@H](C)CN([C@H](C)CO)S(=O)(=O)c1ccccc1 | 1.072 ± 0.0076 |
| COc1ccc(CN(C)C[C@H]2OCCCC[C@H](C)Oc3ccc(NC(=O)C4CCCCC4)cc3C(=O)N([C@@H](C)CO)C[C@H]2C)cc1 | 1.1 ± 0.013 |
| N#Cc1cccc(-c2ccc([C@H]3[C@@H]4CN(Cc5ccccc5)C[C@H]3N4)cc2)c1 | 1.1 ± 0.12 |
| CCC(=O)N1Cc2cc(C(=O)N3CCCCC3)nc(-c3cccc(-c4cccnc4)c3)c2[C@H]1CCO | 1.03 ± 0.011 |
| CC(C)C#Cc1ccc([C@H]2[C@@H](C#N)N(C(=O)c3cccc(F)c3)[C@@H]2CO)cc1 | 1.21 ± 0.075 |
| N#Cc1ccc(-c2ccc([C@@H]3[C@H]4CNC[C@@H]3N4Cc3ccc4c(c3)OCO4)cc2)cc1 | 0.924 ± 0.017 |
| CCCNC(=O)N1[C@H](C#N)[C@H](c2ccccc2-c2cccc(C)c2)[C@@H]1CO | 0.999 ± 0.073 |
| O=C(C[C@@H]1C=C[C@H](NC(=O)Nc2ccc3c(c2)OCO3)[C@@H](CO)O1)NCCCN1CCOCC1 | 1.03 ± 0.07 |
| COc1ccc(CN2CC3(C2)[C@H](c2ccccc2)[C@@H](CO)N3CC2CCCC2)cc1 | 0.923 ± 0.083 |
| COCC(=O)N1C[C@@]2(C1)CN([C@@H](CO)c1c2c2ccc(OC)cc2n1C)S(C)(=O)=O | 1.01 ± 0.085 |
| O=C(c1ccccc1F)N1CC(=O)N2[C@@H](CO)[C@@H](c3ccc(C#Cc4ccccc4)cc3)[C@@H]2C1 | 1.02 ± 0.092 |
| O=C(Nc1cc(F)ccc1F)N[C@@H]1CC[C@@H](CCn2cc(C3CCCCC3)nn2)O[C@@H]1CO | 1.03 ± 0.021 |
| Cc1cc(C(=O)Nc2ccc3c(c2)C(=O)N(C)[C@H]2CC[C@H](CC(=O)NCc4ccc(-c5ccccc5)cc4)O[C@H]2CO3)no1 | 1.1 ± 0.1 |
| CO[C@H]1CN(C)C(=O)c2ccc(NC(C)=O)cc2OC[C@H](C)N(C(=O)c2cnccn2)C[C@H]1C | 1.06 ± 0.08 |
| Cc1noc(C)c1S(=O)(=O)Nc1ccc2c(c1)CC(=O)N([C@H](C)CO)C[C@H](C)[C@@H](CN(C)Cc1ccc(Oc3ccccc3)cc1)O2 | 0.9336 ± 0.0034 |
| O=S(=O)(c1ccc(F)cc1)N1C[C@H]2[C@@H](c3ccccc31)[C@@H](CO)N2Cc1ccccc1Cl | 0.9129 ± 0.0022 |
| C[C@@H]1CN([C@@H](C)CO)C(=O)c2cccc(NS(C)(=O)=O)c2O[C@H]1CN(C)Cc1ccc(-c2ccccc2)cc1 | 1.01 ± 0.029 |
| CC(=O)N1[C@@H](CO)[C@@H](c2ccc(C3=CCCC3)cc2)C12CN(C(=O)NC(C)C)C2 | 1.1 ± 0.027 |

| Compound | viability index |
| --- | --- |
| CC[C@@H]1C/C=C\C[C@@H](c2ccc(OC)cc2OC)NC(=O)[C@@H](C)CC(=O)N1 | 1.02 ± 0.025 |
| COc1ccc(NC(=O)N(C)C[C@H]2OCc3ccccc3-c3ccccc3C(=O)N([C@H](C)CO)C[C@@H]2C)c(OC)c1 | 1.07 ± 0.077 |
| C[C@@H]1CCCCO[C@@H](CN(C)C(=O)Nc2cccc3ccccc23)[C@H](C)CN([C@@H](C)CO)C(=O)c2cc(NC(=O)CCC(F)(F)F)ccc2O1 | 1 ± 0.061 |
| COc1cccc(S(=O)(=O)N2CCCCN3[C@H](CO)[C@@H](c4ccc(C#CCC(C)C)cc4)[C@H]3C2)c1 | 0.926 ± 0.059 |
| COc1ccc(-c2ccc3c(c2)[C@@H]2[C@@H](CCN2C(=O)c2cccc(F)c2)[C@H](CO)N3)cc1 | 0.848 ± 0.042 |
| COc1ccc(NC(=O)N(C)C[C@@H]2OCc3ccccc3-c3ccccc3C(=O)N([C@H](C)CO)C[C@H]2C)c(OC)c1 | 0.898 ± 0.011 |
| COc1ccc2c3c([C@H](CO)N(C)C[C@]33CCN(CC3)C(=O)c3ccc4OCOc4c3)n(C)c2c1 | 0.888 ± 0.035 |
| O=C1CN(S(=O)(=O)Cc2ccccc2)C[C@H]2[C@H](c3ccc(C#Cc4ccccc4)cc3)[C@@H](CO)N12 | 0.955 ± 0.09 |
| CCCNC(=O)N1C[C@]2(CCN(CC2)C(=O)Cc2cccnc2)c2c([nH]c3cc(OC)ccc23)[C@H]1CO | 1.06 ± 0.06 |
| C[C@@H]1CN([C@H](C)CO)C(=O)c2cc(NC(=O)Nc3cccc4ccccc34)ccc2O[C@@H](C)CCCCO[C@@H]1CN(C)Cc1ccc(C(F)(F)F)cc1 | 1.07 ± 0.15 |
| CN1C(=O)c2cc(NC(=O)C3CCOCC3)ccc2OC[C@H]2O[C@H](CC(=O)NCC3CCCCC3)CC[C@@H]21 | 1.12 ± 0.029 |
| COc1cccc(NC(=O)N[C@@H]2C=C[C@@H](CC(=O)NCc3ccncn3)O[C@H]2CO)c1 | 0.999 ± 0.02 |
| O=C(C[C@H]1C=C[C@@H](NC(=O)Nc2ccc3c(c2)OCO3)[C@@H](CO)O1)NCCCN1CCOCC1 | 0.9 ± 0.15 |
| C[C@@H]1CCCCO[C@H](CN(C)S(=O)(=O)c2ccccc2)[C@@H](C)CN([C@H](C)CO)C(=O)c2cc(NC(=O)Nc3ccc4c(c3)OCO4)ccc2O1 | 1.015 ± 0.0077 |
| N#Cc1cccc(-c2ccc([C@H]3[C@@H]4CN(C(=O)C5CCOCC5)C[C@H]3N4)cc2)c1 | 1.08 ± 0.071 |
| COc1cccc(-c2ccc3c(c2)O[C@@H](CN(C)Cc2cccnc2)[C@@H](C)CN([C@H](C)CO)S3(=O)=O)c1 | 0.97 ± 0.042 |
| O=C(O)[C@@H]1[C@@H](CO)[C@@H]2Cn3c(ccc(-c4cccc(F)c4)c3=O)[C@@H]2N1C(=O)c1ccccn1 | 1.02 ± 0.03 |
| C[C@H]1CCCCO[C@@H](CN(C)Cc2ccc3c(c2)OCO3)[C@@H](C)CN([C@@H](C)CO)C(=O)c2cc(NS(=O)(=O)c3cn(C)cn3)ccc2O1 | 1.08 ± 0.071 |
| O=C([C@@H]1[C@@H](CO)[C@@H]2Cn3c(ccc(-c4ccc(F)cc4)c3=O)[C@@H]2N1Cc1cocn1)N1CCCCC1 | 0.896 ± 0.015 |
| COC(=O)C[C@@H]1C[C@H]2c3cc(N)ccc3O[C@H]2[C@@H](CO)O1 | 1.145 ± 0.011 |
| C[C@H](CO)N1C[C@H](C)[C@@H](CN(C)S(=O)(=O)c2cccs2)OCc2ccccc2-c2ccccc2C1=O | 1.02 ± 0.054 |
| C[C@@H]1CCCCO[C@@H](CN(C)Cc2ccncc2)[C@H](C)CN([C@H](C)CO)C(=O)c2cc(NS(=O)(=O)c3ccc(Cl)cc3)ccc2O1 | 1.025 ± 0.0067 |
| C[C@@H]1CN([C@H](C)CO)C(=O)c2cc(NS(=O)(=O)c3ccccc3)ccc2O[C@@H](C)CCCCO[C@@H]1CN(C)C(=O)C1CCCCC1 | 1.01 ± 0.13 |
